# Over roughly 18,000 sequences, “TetR repression strength (sort-seq, GFP reporter)” has its median near 0.23; the highest 2% begin near 0.68. Some of the results follow.
# Molecular target: TetR (class B, Tn10) (UniProt P04483)
# Assay: TetR repression strength (sort-seq, GFP reporter) (relative to tetO2 = 1); higher = stronger repression
# Details: E. coli
# In short: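 Repression strength is the top bin index plus one minus the read-weighted mean bin, relative to the unaltered operator's value. A low-copy library in E. coli SIG10-MAX randomized eight operator positions between a constitutive promoter and sfGFP, with TetR expressed constitutively; cells grew 5 h at 37 °C in LB with 50 µg/mL chloramphenicol and 10^6 were FACS-sorted into 13 bins that were each Illumina-sequenced. Three independent transformations were averaged, keeping only members with ≥30 reads in all replicates and CV ≤0.5.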
# Chain of UniProt P04483 (P04483 whole entry): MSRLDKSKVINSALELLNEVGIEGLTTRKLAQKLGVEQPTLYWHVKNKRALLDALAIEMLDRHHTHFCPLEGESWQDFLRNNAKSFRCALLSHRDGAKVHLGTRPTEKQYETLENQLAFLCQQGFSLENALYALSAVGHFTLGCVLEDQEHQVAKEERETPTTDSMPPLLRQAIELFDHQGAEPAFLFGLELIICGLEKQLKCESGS
row,Sequence,TetR repression strength
1,TCCCTCAGAGTTGGGGAGA,0.0346
2,TCCCGTTGAGTGCGTGAGA,0.144
3,TCCCGTGTAGTGGTCGAGA,0.149
4,TCCCGGTAAGTGTTTGAGA,0.246
5,TCCCAACTAGTCCAGGAGA,0.362
6,TCCCCGGCAGTCTCGGAGA,0.174
7,TCCCGTACAGTCAGTGAGA,0.119
8,TCCCGGGCAGTCGGAGAGA,0.331
9,TCCCTCACAGTTTCGGAGA,0.117
10,TCCCGCTGAGTAGTGGAGA,0.355
11,TCCCCGGAAGTCGAGGAGA,0.00628
12,TCCCTTCGAGTACGTGAGA,0.349
13,TCCCGAGGAGTGCAGGAGA,0.322
14,TCCCCCACAGTGTTGGAGA,0.0473
15,TCCCCGTAAGTACTAGAGA,0.29
16,TCCCGTTTAGTTACGGAGA,0.193
17,TCCCCGTGAGTGTTAGAGA,0.318
18,TCCCTTGGAGTGCACGAGA,0.097
19,TCCCAGACAGTGTAGGAGA,0.444
20,TCCCGGCGAGTACAGGAGA,0.248
21,TCCCGTCTAGTGGCGGAGA,0.29
22,TCCCATAAAGTGCAGGAGA,0.245
23,TCCCTCCAAGTCGTGGAGA,0.316
24,TCCCTAACAGTTCTGGAGA,0.516
25,TCCCTTTAAGTCGGTGAGA,0.257
26,TCCCGTGAAGTGGCTGAGA,0.131

row,Sequence,TetR repression strength
1,TCCCAGGGAGTGCCAGAGA,0.112
2,TCCCATGGAGTGGCCGAGA,0.0889
3,TCCCTCCTAGTGTATGAGA,0.544
4,TCCCCCCGAGTGTGTGAGA,0.238
5,TCCCGGGGAGTGGTGGAGA,0.427
6,TCCCTCACAGTACTTGAGA,0.217
7,TCCCCTCCAGTAATGGAGA,0.183
8,TCCCCCCTAGTGTCCGAGA,0.358
9,TCCCCGCGAGTTCGGGAGA,0.492
10,TCCCAAGTAGTGGGTGAGA,0.136
11,TCCCCCATAGTCTATGAGA,0.298
12,TCCCCCGAAGTTAGCGAGA,0.274
13,TCCCTGCAAGTGAGGGAGA,0.237
14,TCCCTCAAAGTTGTTGAGA,0.251
15,TCCCTCCAAGTGGAGGAGA,0.542
16,TCCCGGGGAGTGCATGAGA,0.284
17,TCCCAAGCAGTCCGAGAGA,0.254
18,TCCCCGGTAGTCTTCGAGA,0.494
19,TCCCAGGGAGTTGAAGAGA,0.409
20,TCCCAGGTAGTCCGGGAGA,0.22
21,TCCCTATGAGTTCGGGAGA,0.214
22,TCCCGAGAAGTAGCGGAGA,0.241
23,TCCCATCTAGTGTAAGAGA,0.311
24,TCCCCCTAAGTTACCGAGA,0.537
25,TCCCGCTTAGTCCGGGAGA,0.272
26,TCCCCGTGAGTCACTGAGA,0.0402

row,Sequence,TetR repression strength
1,TCCCGTTGAGTAAAGGAGA,0.518
2,TCCCGGGAAGTAGCGGAGA,0.127
3,TCCCAAGAAGTTGCGGAGA,0.21
4,TCCCGAGAAGTCACAGAGA,0.215
5,TCCCGTCGAGTTGGGGAGA,0.0764
6,TCCCGTGTAGTTGAGGAGA,0.368
7,TCCCAGACAGTTTGGGAGA,0.203
8,TCCCTGGGAGTGTACGAGA,0.204
9,TCCCTGCAAGTGTCGGAGA,0.133
10,TCCCGACCAGTGGATGAGA,0.34
11,TCCCCGTGAGTTTGAGAGA,0.0703
12,TCCCTTCAAGTCTGGGAGA,0.172
13,TCCCGCCAAGTGCCAGAGA,0.392
14,TCCCAACTAGTGGTCGAGA,0.175
15,TCCCACGCAGTATTGGAGA,0.34
16,TCCCTATCAGTGATAGAGA,1
17,TCCCTTGGAGTTTATGAGA,0.113
18,TCCCTCGTAGTCTAAGAGA,0.142
19,TCCCCTGTAGTGTCGGAGA,0.135
20,TCCCCTCAAGTGTAGGAGA,0.128
21,TCCCTCCAAGTCGACGAGA,0.337
22,TCCCTGTGAGTTTCCGAGA,0.314
23,TCCCCATGAGTGAAGGAGA,0.0296
24,TCCCTGTTAGTAGGAGAGA,0.312
25,TCCCGGGGAGTTGGAGAGA,0.37
26,TCCCACATAGTGTTCGAGA,0.358

row,Sequence,TetR repression strength
1,TCCCGGTCAGTTGGCGAGA,0.185
2,TCCCCCGGAGTAGAGGAGA,0.187
3,TCCCTAGGAGTTGTTGAGA,0.189
4,TCCCGGCAAGTCCTCGAGA,0.176
5,TCCCACTCAGTGGGAGAGA,0.423
6,TCCCGAGTAGTGAGCGAGA,0.141
7,TCCCGCGCAGTGGAGGAGA,0.36
8,TCCCGCGGAGTGGAGGAGA,0.231
9,TCCCTTAAAGTGGTGGAGA,0.179
10,TCCCGAAAAGTATTAGAGA,0.368
11,TCCCATTCAGTACTCGAGA,0.232
12,TCCCTTGCAGTTTTCGAGA,0.207
13,TCCCTTTCAGTGGCTGAGA,0.496
14,TCCCCGCAAGTAGAAGAGA,0.207
15,TCCCGAACAGTGGGAGAGA,0.231
16,TCCCCGCCAGTGGCTGAGA,0.359
17,TCCCGGTAAGTGTGGGAGA,0.302
18,TCCCGAGTAGTGGAGGAGA,0.155
19,TCCCGGCTAGTTAGGGAGA,0.177
20,TCCCTGTTAGTGTGTGAGA,0.138
21,TCCCTGGCAGTTACGGAGA,0.0762
22,TCCCTTGCAGTAGCGGAGA,0.178
23,TCCCACCAAGTCTAGGAGA,0.232
24,TCCCATGGAGTGGGCGAGA,0.141
25,TCCCGGGCAGTACTTGAGA,0.29
26,TCCCATCCAGTGGTCGAGA,0.205

row,Sequence,TetR repression strength
1,TCCCGTCCAGTGGTTGAGA,0.131
2,TCCCTTAAAGTGTTGGAGA,0.334
3,TCCCCCATAGTGCCAGAGA,0.453
4,TCCCACTAAGTGGCTGAGA,0.0969
5,TCCCGGCTAGTATTTGAGA,0.12
6,TCCCAATAAGTCCGGGAGA,0.0056
7,TCCCTGGAAGTAGATGAGA,0.342
8,TCCCGGTGAGTGCGTGAGA,0.282
9,TCCCCGCAAGTGGACGAGA,0.218
10,TCCCGGCTAGTGCGTGAGA,0.246
11,TCCCTTTAAGTAGAAGAGA,0.207
12,TCCCCTGTAGTGGGAGAGA,0.33
13,TCCCTGACAGTTCCCGAGA,0.2
14,TCCCAAATAGTAACTGAGA,0.0655
15,TCCCTCTAAGTTATAGAGA,0.703
16,TCCCATTGAGTGAGTGAGA,0.324
17,TCCCGGTTAGTTGAGGAGA,0.12
18,TCCCCGTTAGTCGAAGAGA,0.0179
19,TCCCACCAAGTGGGGGAGA,0.1
20,TCCCAGCGAGTGCATGAGA,0.104
21,TCCCTTCTAGTACCTGAGA,0.494
22,TCCCGGCCAGTGGGAGAGA,0.268
23,TCCCTCAGAGTCGCGGAGA,0.279
24,TCCCGACCAGTGAAGGAGA,0.276
25,TCCCGCATAGTAACAGAGA,0.432
26,TCCCGCGAAGTGACTGAGA,0.319

row,Sequence,TetR repression strength
1,TCCCCGTAAGTGTCTGAGA,0.252
2,TCCCTCACAGTACAAGAGA,0.232
3,TCCCCTTCAGTGGTTGAGA,0.217
4,TCCCCGGTAGTGTTAGAGA,0.154
5,TCCCGGGTAGTAGGGGAGA,0.183
6,TCCCCGCGAGTGTGGGAGA,0.38
7,TCCCCCTGAGTGTAGGAGA,0.155
8,TCCCGGCGAGTAGAGGAGA,0.248
9,TCCCATCAAGTTGCGGAGA,0.172
10,TCCCTACGAGTGGACGAGA,0.0565
11,TCCCTTGGAGTTAGGGAGA,0.2
12,TCCCGGATAGTCGCCGAGA,0.296
13,TCCCGAATAGTGGCTGAGA,0.267
14,TCCCCATTAGTTTGAGAGA,0.512
15,TCCCTATGAGTTCACGAGA,0.459
16,TCCCGCGTAGTCTAGGAGA,0.462
17,TCCCTCCTAGTCGCCGAGA,0.511
18,TCCCAGAAAGTTCAAGAGA,0.387
19,TCCCCCCAAGTGGCGGAGA,0.0427
20,TCCCGTTCAGTGCATGAGA,0.398
21,TCCCGTGCAGTTCTTGAGA,0.0764
22,TCCCATTAAGTTTCTGAGA,0.229
23,TCCCGGGCAGTCTGCGAGA,0.355
24,TCCCGCCTAGTCTGCGAGA,0.194
25,TCCCACAGAGTTCACGAGA,0.328
26,TCCCTGTGAGTGTCTGAGA,0.251

row,Sequence,TetR repression strength
1,TCCCGGTCAGTCAGGGAGA,0.226
2,TCCCAGGCAGTGATGGAGA,0.181
3,TCCCGTGGAGTAAAGGAGA,0.242
4,TCCCGCGTAGTGAACGAGA,0.0889
5,TCCCCACTAGTTAAGGAGA,0.225
6,TCCCTGACAGTCGTGGAGA,0.0295
7,TCCCGAAGAGTTAGTGAGA,0.21
8,TCCCGAACAGTGGTTGAGA,0.184
9,TCCCGTCTAGTTAAGGAGA,0.811
10,TCCCATTCAGTTGGAGAGA,0.262
11,TCCCAATGAGTGTCAGAGA,0.213
12,TCCCTGGAAGTCTTGGAGA,0.197
13,TCCCTTACAGTGGGTGAGA,0.261
14,TCCCGAACAGTAATGGAGA,0.158
15,TCCCATTAAGTGATTGAGA,0.379
16,TCCCTGCAAGTTAGCGAGA,0.178
17,TCCCGAAGAGTGCGCGAGA,0.0512
18,TCCCGTGTAGTAGTCGAGA,0.255
19,TCCCGACGAGTAGTGGAGA,0.171
20,TCCCGAAGAGTCAAAGAGA,0.207
21,TCCCGTTTAGTACGGGAGA,0.175
22,TCCCTTCAAGTACGTGAGA,0.312
23,TCCCTCGGAGTCGCGGAGA,0.446
24,TCCCAGGTAGTCTTTGAGA,0.288
25,TCCCCAGTAGTCACGGAGA,0.215
26,TCCCCAGGAGTTACGGAGA,0.193

row,Sequence,TetR repression strength
1,TCCCGGCGAGTAAGTGAGA,0.287
2,TCCCCTTTAGTAGGTGAGA,0.14
3,TCCCGTTCAGTCCGTGAGA,0.376
4,TCCCGGTGAGTAGTGGAGA,0.27
5,TCCCGGAGAGTGTGAGAGA,0.257
6,TCCCCATCAGTGAGTGAGA,0.409
7,TCCCCAGGAGTCCGGGAGA,0.332
8,TCCCGCCAAGTTGTCGAGA,0.274
9,TCCCTCACAGTCAACGAGA,0.354
10,TCCCCGTAAGTTTATGAGA,0.301
11,TCCCAGATAGTTAGCGAGA,0.586
12,TCCCTTTAAGTTTACGAGA,0.463
13,TCCCGCCTAGTGGTGGAGA,0.124
14,TCCCGAGTAGTAGATGAGA,0.147
15,TCCCGTGCAGTGGGGGAGA,0.194
16,TCCCTTGCAGTCCAGGAGA,0.246
17,TCCCCACTAGTCTGCGAGA,0.602
18,TCCCCAGGAGTATTCGAGA,0.238
19,TCCCTATCAGTGATGGAGA,0.999
20,TCCCGGCGAGTTATGGAGA,0.347
21,TCCCTATCAGTTTATGAGA,0.407
22,TCCCATTGAGTCAACGAGA,0.386

# Source: a collection of fitness landscapes (doi:10.1038/s41467-024-54723-y)
